{
  "source": "patent US20100203084A1",
  "about": "“METHOD FOR TREATING PAIN OR OPIOID DEPENDENCE USING A SPECIFIC TYPE OF NON-OPIOID AGENT IN COMBINATION WITH A SELECTIVE EXCITATORY-OPIOID-RECEPTOR INACTIVATOR” (priority 2006, published 2010)",
  "test_system": "chronic morphine-dependent mice",
  "experiment": "naloxone-precipitated withdrawal hyperalgesia in chronic morphine-dependent mice (tail-flick)",
  "conditions": "NLX 10 μg/kg on Day 6 after morphine 10 mg/kg b.i.d. for 5 days, FIG. 9",
  "data": [
    {"smiles": "C=CCN1CC[C@]23c4c5ccc(O)c4O[C@H]2C(=O)CC[C@@]3(O)[C@H]1C5", "note": "[naloxone]", "values": [
      {"measurement": "effect on tail-flick latencies, acute naloxone in chronic morphine-dependent mice", "value": "evokes long-lasting hyperalgesia"}
    ]}
  ]
}
